# Assay results as given in the supplement of paper PMC11417369.
# The list shows a part of the results.
# Test system: PfSIP2 AP2 domain 1 (GST-tagged)
# Assay: gcPBM binding intensity (ln(normalized median fluorescence intensity)); higher = stronger DNA binding
# How it was run: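 The highest Masliner-normalised natural-log median intensity across replicate spots of either probe orientation is reported as binding intensity. GST-tagged P. falciparum DNA-binding domains expressed in E. coli were applied for 1 h to an Agilent 4 × 180k array of primer-extended double-stranded 36-bp intergenic genomic probes plus negative controls, and bound protein was detected with Alexa488 anti-GST antibody and scanned at 488 nm.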
row,Sequence,gcPBM binding intensity (ln)
1,GTGTGATGGTCCAATATACACACTTAAAAAAAAAAA [CACACA_site2426],6.93
2,TACTGTTATAAATGTGGTACTAATATTATACATATA [XGTACX_site5116],6.99
3,TACATATATATATTATGTACATAAGGTTTGAGTTCA [XGTACX_site2726],7.11
4,GAAAAAAAAGCTTGCACACGTATTTGCTTTATGTAT [CACACA_site4931],6.93
5,TTTTTGGTATTATTGTGTACTTATAAATAATATAAT [XGTACX_site4019],7.4
6,ATATTTTGTAACTATACACACATATTTATATTATAA [CACACA_site7433],6.97
7,ATATATATAAATAATTGTACATAATAATAAAATATA [XGTACX_site4839],7.41
8,ATATAAAATATTACGTGTACACATAAATAAAAATAA [XGTACX_site3746],7.49
9,CAAGTAGATATTATACGTACATATATATATATATAT [XGTACX_site8349],9.49
10,TTTTATACATATTTTACACACTAAAATATACCTATA [CACACA_site6286],7.26
11,TAAAAAATATACATTCGTACATATATATTATATATA [XGTACX_site7918],7.12
12,ATATATATATATATTACACACTTTTTCTTTTTTTTT [CACACA_site2780],9.47
13,AATAAACATAAATAAAAATTATAAAATATATATATG [CACACA_negctrl_site1709],6.97
14,TTTACATTTCAGTAGACACACAAAAAATAATACTAA [CACACA_site512],6.87
15,AAAAAAAAATATACATATATATATATATATATATAT [CACACA_negctrl_site1763],9.37
16,CAAAAGTAAGCACGCACACACAACATGAAATAAAAT [CACACA_site165],7.16
17,TATACACTTATTGGTGGTACAATATATAAATATATG [XGTACX_site3289],7.19
18,TTTTGATCTGAAGGAACCTAAAAAGGGAAGAGAAAA [CACACA_negctrl_site1656],6.93
19,TATATATATATTTATACACACACATATATTTATATA [CACACA_site8054],8.55
20,ATTAGTATAATGTAACTTAGTTAATAGTGCTAATAT [CACACA_negctrl_site764],7.35
21,TATATTTATAACAACACACACAGATCATAAAACTGC [CACACA_site7086],6.95
22,ACAAAATAAAACATCTGTACATATTATTATTATAAG [XGTACX_site4802],6.9

row,Sequence,gcPBM binding intensity (ln)
1,AAAAAAAAAAAAAAAACACACACATGCACATCATAT [CACACA_site8083],7.8
2,AAAAAAAACACGCGCACACACACACCCACCCACCGA [CACACA_site2206],7
3,CAATGTTAACATATTACACACATATGTATTTATAAC [CACACA_site7314],7.12
4,TAAATATATAATAAATGTACATATTAATATTATGGT [XGTACX_site1498],7.56
5,AAAAAAAATTTAATTGCACACAGGAAAATATAATTT [CACACA_site3810],7.01
6,TAAATACAGAGGAAAATACACACGTATATATATAAA [CACACA_site3410],6.78
7,TATAAATATACAAACACACATACAAACATATATATA [CACACA_site1120],7.27
8,TTAATACCCAGACACACACACACAAAATAAAATACA [CACACA_site7968],7.24
9,TTTTTTTAATGATATTGTACATTAATAAAAAATATG [XGTACX_site1719],7.06
10,ATTTGATATATAATAATACACACTTACATAATTAAT [CACACA_site290],6.93
11,TCTTTTTCAAGATGACGTACTTAGATTAATATAAAA [XGTACX_site3931],7.09
12,ATATGATCATTTTATCATTTTGCTTTTTCTTTTTTT [CACACA_negctrl_site1325],6.54
13,ATCGTGTTAAATGTTGTGCACATATAAATTACAAAA [GTGCAC_site9822],9.42
14,AATTTTGGAACGTGCACACATATGTAATATATATAT [CACACA_site3067],10.1
15,TTATATTCTTTTCTCTTTCTACTTTTTTTTTTTTTT [XGTACX_negctrl_site317],6.96
16,AAGAAAAACTTATATATATATATATATATATATATA [TGCATGCA_negctrl_site466],9.88
17,TCATACATGTATATGTGTACATATAATGTATATTCC [XGTACX_site6082],7.08
18,AAAAAAAAAAAAAAAAGTACAAAAAGAAGAAAAAAA [XGTACX_site6521],7.64
19,TTTTTTTTTTTTTTTTTTTTTTTATGTTCTTAAAAA [GTGCAC_negctrl_site62],6.98
20,AAAATATAGGTATGCACACACATATACTTCTGTGCA [CACACA_site1409],8.08
21,TTTTTTTTTTTTACGTGTACATAAATGTTAAGTAAT [XGTACX_site3901],7.11
22,TATAAATATTTATGTACACACATATACATGTTGAAT [CACACA_site5684],7.06

row,Sequence,gcPBM binding intensity (ln)
1,AGATATTATTTATATATTTATATATATATATAGATA [TGCATGCA_negctrl_site77],6.86
2,AGAGAAAAAAAAAATTGTACGTATGTAATAATATGC [XGTACX_site2981],7.08
3,TAAATATCAAGACACACACACAAAAGTGAATAAATA [CACACA_site7723],6.89
4,AAAGTAAAAGAAAGCACACACACATGGATTTATGTA [CACACA_site5997],6.69
5,TTCTTTTTAAATTACACACACATATATATATGTATA [CACACA_site3515],7.33
6,TATTTACACCCATGCGCACACATAAATAAATAATAG [CACACA_site5350],8.34
7,TATATATATGTATGTGGTACTTATATTATATACATA [XGTACX_site4550],7.32
8,CCATGTAGTGAATAGGTGCATATCAAAAAAAAAAAA,11
9,ACAGAAAATAAAATTTGTACATATATAGAATAAAGA [XGTACX_site3014],7.2
10,ATACATATGGTGGATCGTACATATATATAATATGTA [XGTACX_site8631],6.86
11,TTATACACAAAAAAAAAAATATATATATATATATAT [XGTACX_negctrl_site5],9.29
12,TGTTGTATTGAAGCTAAAAAATGAGGCAAAAAAAAA [CACACA_negctrl_site1189],7
13,ATTTATGAGTAATACACACACTTGTGGATATATTAC [CACACA_site7735],6.81
14,TTTATATAATATAAATTTTTTTTGCAGTAATAAAAA [TGCATGCA_negctrl_site570],6.9
15,ACTTCAAAAAAAAAAAAATATATATATATATATTAT [GTGCAC_negctrl_site158],7.18
16,TTTTAAATATGCCATACACACTACTATATAATAAAT [CACACA_site5119],7.15
17,ATTTTATTTTCATATGAACACACATATATATATTAT [CACACA_site8741],7.29
18,AACAACCAAAGGCACACACACAAAAAAAAAAATATA [CACACA_site399],7.59
19,TGATAAGGATGTGAATTACTCAAAGGAAGTAATCAT [CACACA_negctrl_site1432],6.89
20,ACAAAACTGTCTTTCACACAGAAATAAAAAAAAAAA [CACACA_site5829],6.95
21,AAATTTCATGGGTATTGTACATAATTTTATTATATA [XGTACX_site4988],7.03
22,ACATAAGATGAAAAATGTACATTCAAAAAATGAAAT [XGTACX_site3227],6.91

row,Sequence,gcPBM binding intensity (ln)
1,ATATACTTACATATTACACACAATATTTTTAAATGT [CACACA_site3627],7.11
2,TTTTTTTTGGTTTTCATGCACACAATTTATAAATCT [CACACA_site3107],8.33
3,AAAGTAAAAAAAAAAACATGCACATATTTACTTTAT [TGCATGCA_site849],7.2
4,AAGGGAATATACCTTACACACAAAAATGCAGATATA [CACACA_site1451],6.78
5,CTAATCAAAATAAATTAACACACAATTTTAATATTG [CACACA_site7887],6.58
6,GTTAATATACTTAATACACACACGAATATATATAAA [CACACA_site1181],7.04
7,ATTCTATACATATATATACACACGTAGTTTCTATTT [CACACA_site2223],6.89
8,TGTAATCTGGAGAAAAGTACACAGTATCTGGTAGCT [XGTACX_site2039],6.86
9,ATTTAAATTATAAAATGTACATTTAACAAATTTTAT [XGTACX_site770],6.93
10,TAACATTATATATATTGTACATAGTAAATATTATAT [XGTACX_site5421],6.9
11,CTTTTAATGGTGTAAAGTACTTTCTTAAGGTTCAAA [XGTACX_site8423],7.1
12,TATACAACGTTAAGCACACACAAAAAAAATTTAATA [CACACA_site3086],6.95
13,ATATATGGGGCGCAGGAAAAGAGTTTTGGAAATAAA [CACACA_negctrl_site1265],7.31
14,AAGTTATATAAAGGAACACACATTTGATTTTATTTT [CACACA_site6814],6.75
15,ATAAAACATAAAAATCGTACAAAGGAGGATATAAGG [XGTACX_site420],7.31
16,TGGAGGTCAGTTCACAGTACCCAGAAAACTCTACGA [XGTACX_site2561],6.58
17,AAAATGATGTTAATTACACACATCATCTCATAAACA [CACACA_site3017],6.9
18,ATTATTTATTATTTCTGTACGTATAAAAATAACATT [XGTACX_site1671],7.3
19,AATTGAAAAATCAGCACACACACAAATACATACATA [CACACA_site3232],7.09
20,TGGTAATACACATACACACACACATACACATATATA [CACACA_site7312],7.32
21,GCTATATATTACAATCGTACAATATATATATATATA [XGTACX_site6730],9
22,ATATATATATATATTACACACATGTGCAATTAAAAT [CACACA_site1778],8.92
